# The supplement of paper PMC4604168 (melanoma cell lines)
# The list shows a part of the results. Single values are uncertain, as repeats are few or missing.
# Key:
# Assay in all cases: cell count relative to DMSO control; melanoma cells; higher = more viable cells
# Settings in all cases: library dose: standard library concentration; 72 h
# G361 = system: G361
# IPC-298 = system: IPC-298
# IST-MEL1 = system: IST-MEL1
# LB2518-MEL = system: LB2518-MEL
# LOXIMVI = system: LOXIMVI
# MEL-HO = system: MEL-HO
# MZ2-MEL = system: MZ2-MEL
# MeWo = system: MeWo
# RPMI7951 = system: RPMI7951
# RVH-421 = system: RVH-421
# SkMel28 = system: SkMel28
# SkMel2 = system: SkMel2
# SkMel30 = system: SkMel30
# SkMel5 = system: SkMel5
# UACC257 = system: UACC257
# UACC62 = system: UACC62
# WM115 = system: WM115
# WM1716 = system: WM1716
# WM1745 = system: WM1745
# WM3526 = system: WM3526
# 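Also: cells treated in 1,536-well plates, then fixed and DAPI-stained, with nuclei counted from automated high-throughput microscope images.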
SMILES,cell count (G361) [%],cell count (IPC-298) [%],cell count (IST-MEL1) [%],cell count (LB2518-MEL) [%],cell count (LOXIMVI) [%],cell count (MEL-HO) [%],cell count (MZ2-MEL) [%],cell count (MeWo) [%],cell count (RPMI7951) [%],cell count (RVH-421) [%],cell count (SkMel28) [%],cell count (SkMel2) [%],cell count (SkMel30) [%],cell count (SkMel5) [%],cell count (UACC257) [%],cell count (UACC62) [%],cell count (WM115) [%],cell count (WM1716) [%],cell count (WM1745) [%],cell count (WM3526) [%]
"CC(=O)c1c(C)c2cnc(Nc3ccc(N4CCNCC4)cn3)nc2n(C2CCCC2)c1=O [palbociclib] + OCCn1cc(-c2cnc3nnn(Cc4ccc5ncccc5c4)c3n2)cn1 [PF04217903] (first compound 0.2 µM, partner dose 5 µM)",77.7,78.8,72.2,78.5,97.3,89,75.9,60.5,73.8,70.4,47.1,63.1,58.5,68.3,83.5,79.4,61.6,43.3,96.5,52.7
"CC(=O)O[C@@]12CO[C@@H]1C[C@H](O)[C@@]1(C)C(=O)[C@H](O)C3=C(C)[C@@H](OC(=O)[C@H](O)[C@@H](NC(=O)OC(C)(C)C)c4ccccc4)C[C@@](O)([C@@H](OC(=O)c4ccccc4)[C@H]21)C3(C)C [Docetaxel] + Nc1cccc2c1CN(C1CCC(=O)NC1=O)C2=O [lenalidomide] (first compound 0.0005 µM, partner dose 5 µM)",15.3,46,28.8,49.7,59.7,39,41,22.6,31.6,162,13.6,25.1,54.2,31.1,57.5,56.1,32.3,33.4,52.6,33
"CO[C@H]1C[C@@H]2CC[C@@H](C)[C@@](O)(O2)C(=O)C(=O)N2CCCC[C@H]2C(=O)O[C@H]([C@H](C)C[C@@H]2CC[C@@H](OCCO)[C@H](OC)C2)CC(=O)[C@H](C)/C=C(\C)[C@@H](O)[C@@H](OC)C(=O)[C@H](C)C[C@H](C)/C=C/C=C/C=C/1C [everolimus] + Cn1nnc2c(C(N)=O)ncn2c1=O [temozolomide] (first compound 0.1 µM, partner dose 10 µM)",50.2,60.3,85.6,50.4,57.7,61,59.3,67.1,81.7,77.3,25.4,69.6,65.6,62.5,101,54.5,55.8,57.9,69.3,62.4
"CC(=O)O[C@@]12CO[C@@H]1C[C@H](O)[C@@]1(C)C(=O)[C@H](O)C3=C(C)[C@@H](OC(=O)[C@H](O)[C@@H](NC(=O)OC(C)(C)C)c4ccccc4)C[C@@](O)([C@@H](OC(=O)c4ccccc4)[C@H]21)C3(C)C [Docetaxel] + CCCS(=O)(=O)Nc1ccc(F)c(C(=O)c2c[nH]c3ncc(Cl)cc23)c1F [PLX4720] (first compound 0.0005 µM, partner dose 0.4 µM)",16.6,39.1,40.5,43.1,83.5,43.5,40,22.3,28,63.7,17.5,23.8,49.4,51.7,74,40.5,39.5,37.9,44.8,38
"Nc1ncn([C@H]2C[C@H](O)[C@@H](CO)O2)c(=O)n1 [decitabine] + CC(=O)c1c(C)c2cnc(Nc3ccc(N4CCNCC4)cn3)nc2n(C2CCCC2)c1=O [palbociclib] (first compound 0.5 µM, partner dose 0.2 µM)",70.5,55.4,70.9,54.5,65.7,58.1,60.9,50.3,60.4,53.5,49.3,61.8,76.5,64.9,85.5,60.1,49.3,47.1,62.5,56.9
"Nc1ccn([C@@H]2O[C@H](CO)[C@@H](O)C2(F)F)c(=O)n1 [gemcitabine] + C=CCNC1=C2C[C@@H](C)C[C@H](OC)[C@H](O)[C@@H](C)/C=C(\C)[C@H](OC(N)=O)[C@@H](OC)/C=C\C=C(/C)C(=O)NC(=CC1=O)C2=O [Tanespimycin] (first compound 0.002 µM, partner dose 0.01 µM)",33.6,43.7,35.6,55.8,92,48,77.3,33.6,18.2,44.9,69.7,93,91.3,65.8,103,59.2,24.4,61.6,49.3,61.2
"Nc1nc(F)nc2c1ncn2[C@@H]1O[C@H](CO)[C@@H](O)[C@@H]1O [fludarabine] + C[C@@H]1CCN(C(=O)CC#N)C[C@@H]1N(C)c1ncnc2[nH]ccc12 [CP690550] (first compound 1 µM, partner dose 5 µM)",64,68.1,61.3,85.2,85.8,76.6,103,73.1,43.9,88.9,1.59,0.95,16.8,34.5,28.4,60.8,62.5,79.7,73.9,19.4
"CC(=O)c1c(C)c2cnc(Nc3ccc(N4CCNCC4)cn3)nc2n(C2CCCC2)c1=O [palbociclib] + Cn1cncc1[C@@](N)(c1ccc(Cl)cc1)c1ccc2c(c1)c(-c1cccc(Cl)c1)cc(=O)n2C [tipifarnib] (first compound 0.2 µM, partner dose 0.05 µM)",57.5,62.4,69.5,61.3,59.6,73.3,72.9,42.9,55.2,59.5,38.5,48.9,57.2,50.7,80.4,85.4,56.3,46.6,71.6,51.4
"CC(=O)O[C@@]12CO[C@@H]1C[C@H](O)[C@@]1(C)C(=O)[C@H](O)C3=C(C)[C@@H](OC(=O)[C@H](O)[C@@H](NC(=O)OC(C)(C)C)c4ccccc4)C[C@@](O)([C@@H](OC(=O)c4ccccc4)[C@H]21)C3(C)C [Docetaxel] + COCC[n+]1c2c(n(Cc3cnccn3)c1C)C(=O)c1ccccc1C2=O [YM155] (first compound 0.0005 µM, partner dose 0.002 µM)",17,31.3,39.8,22,36.9,39.9,23.9,26,24.4,57.5,18.4,23,45.4,41.2,29,57,35.6,39.9,42,39.7
"CC(=O)O[C@@]12CO[C@@H]1C[C@H](O)[C@@]1(C)C(=O)[C@H](O)C3=C(C)[C@@H](OC(=O)[C@H](O)[C@@H](NC(=O)OC(C)(C)C)c4ccccc4)C[C@@](O)([C@@H](OC(=O)c4ccccc4)[C@H]21)C3(C)C [Docetaxel] + C=CCn1c(=O)c2cnc(Nc3ccc(N4CCN(C)CC4)cc3)nc2n1-c1cccc(C(C)(C)O)n1 [MK1775] (first compound 0.0005 µM, partner dose 0.1 µM)",15.4,49.3,28,42.9,45.2,38.5,56.9,20.9,21.1,41.3,34.4,13.9,52.8,28.5,65.4,69.6,32.2,40.5,29.3,34.1
"Nc1ccn([C@@H]2O[C@H](CO)[C@@H](O)C2(F)F)c(=O)n1 [gemcitabine] + Cc1cc(N2CCOCC2)cc2[nH]c(-c3c(NC[C@@H](O)c4cccc(Cl)c4)cc[nH]c3=O)nc12 [BMS536924] (first compound 0.002 µM, partner dose 1 µM)",66.6,58.5,74.6,58.9,76.9,72.5,95.1,50.9,121,92.2,94.9,80.8,98.3,71.3,98.5,96,107,89.5,51.7,76.2
"Nc1ncn([C@H]2C[C@H](O)[C@@H](CO)O2)c(=O)n1 [decitabine] + O=C(O)c1ccc(-c2c[nH]c3ncc(-c4ccccc4)cc23)cc1C1CCCC1 [GSK650394] (first compound 0.5 µM, partner dose 0.8 µM)",60.9,62.3,54.6,77.2,81.9,69.1,76.2,58.7,72.5,67.7,78.8,106,113,66.3,85,76.8,69.1,70.5,66.5,97.8
"Nc1ncn([C@H]2C[C@H](O)[C@@H](CO)O2)c(=O)n1 [decitabine] + C[C@]1(c2nc3c(C(N)=O)cccc3[nH]2)CCCN1 [Veliparib] (first compound 0.5 µM, partner dose 7 µM)",65.3,55.7,66.7,72.8,78.5,81,73.3,65.6,89.4,86.5,66.8,82.9,65.9,60.3,84.9,56.9,65.2,74.8,120,69.9
"Nc1ncn([C@H]2C[C@H](O)[C@@H](CO)O2)c(=O)n1 [decitabine] + Cc1nc(Nc2ncc(C(=O)Nc3c(C)cccc3Cl)s2)cc(N2CCN(CCO)CC2)n1 [dasatanib] (first compound 0.5 µM, partner dose 0.02 µM)",89.5,68.6,66.6,85.3,28.6,76.3,80.2,76.4,32.8,57.7,62.7,101,102,86.5,90.7,63.6,65.5,74,38.9,85.1
